# ChEMBL document CHEMBL4888484, “Replenishing the malaria drug discovery pipeline: Screening and hit evaluation of the MMV Hit Generation Library 1 (HGL1) against asexual blood stage Plasmodium falciparum ,using a nano luciferase reporter read-out” (2022)
# Screen size: about 150,000 compounds; about 540 (0.36%) showed an effect of 50% or more. Some of the results follow.
# Test system: Plasmodium falciparum
# Assay: Primary screen in NF54 nanoGlo assay, in single point, at 2uM, 72h; a lower Z score goes with more inhibition
# Assay type: functional, Erythrocyte
# Conditions: timepoint 72 hour
Structure (SMILES),% Inhibition [%],Z score
CC(C)COc1ccc(C(C)(C)C(N)=O)cc1,-3,0.49
CNC(=O)[C@@]12CCOC[C@@H]1CN(C(=O)NCCc1cccc(O)c1)C2,-9,0.92
O=C(CN1Cc2ccccc2OC(c2ccccc2F)C1)N1CCCC1c1nc2cc(F)ccc2[nH]1 (stereo not drawn),4,-0.66
CCCc1cc(CNc2nc(N)nc3c2CCCC3)on1,-2,0.23
O=C(NCc1ccc(CO)cc1)[C@]1(c2ccccc2)CCCO1,-4,0.85
CCn1cc(CN2C[C@H](C(=O)O)[C@@H](c3ccccc3C)C2)cn1,-5,0.77
C[C@H](Oc1ccccc1)C(=O)NC1CCN(c2cnsn2)CC1,1,-0.15
Cc1ccc2nc(Cc3ccccc3)c(NC(=O)c3ccc(C(F)(F)F)cc3)n2c1,-11,1.53
CCC(=O)N(Cc1c(-c2ccccc2)noc1N1CCCC1)CC1CC1,3,-0.4
CCC1=Nc2ccccc2N=C(NC(=O)CN2CCN(C)CC2)[C@H]1c1ccccc1,-6,0.93
CC(C)[C@H](NC(=O)Nc1cc(Cl)ccc1F)C(N)=O,43,-5.74
O=C(CN1CCC[C@H](C(=O)NCC(F)(F)F)C1)NC1CCCC1,-5,0.59
Cc1c2c(=O)n(-c3nc4ccccc4s3)[nH]c2cc(=O)n1CCc1c[nH]c2ccccc12,-7,0.87
CCCS(=O)(=O)NC(=O)CCCc1ccccc1,3,-0.39
CCCn1cc(-c2cc(-c3ccc(OC)nc3)nc(N)c2C#N)c(C)n1,2,-0.19
CN1CCC(NC(=O)c2csc(NC(=O)c3cccc(Cl)c3)n2)CC1,8,-1.14
CCCC(=O)NCc1nn(C2CCCC2)c2c1CCCC2,-14,2.74
CC[C@@]1(C)CCCN(C(=O)c2cc(Cn3cc(C)cn3)on2)CC1,-8,1.09
COc1ccc(C(=O)Nc2c(C)nc(Nc3ccc(C)cc3)nc2Nc2ccc(C)cc2)cc1OC,-9,1.79
CCOC(=O)NCC#CCOc1ccccc1C(N)=O,40,-6.34
CC1(O)CC2CCC(C1)N2C(=O)c1cc(Br)c2c(c1)OCCO2 (stereo not drawn),35,-5.09

Structure (SMILES),% Inhibition [%],Z score
COc1cccc(CNC(=O)c2cc(-c3ccccc3)ns2)n1,-7,0.96
COc1ccc(NC(C)=O)cc1NC(=O)NC(C)C(C)CO (stereo not drawn),-7,1.37
Cn1cc(CNc2ccc3[nH]c(=O)n(C)c3c2)c(C(C)(C)C)n1,-13,2.58
CC1CCN(C(=O)c2cc(S(=O)(=O)N(C)CC(=O)Nc3ccc(F)c(Cl)c3)c[nH]2)CC1,-3,0.27
O=C(Cc1ccc2c(c1)OCO2)N1CC2CCC1C2 (stereo not drawn),-7,0.58
CC(C)COc1cccc(C(=O)N(C)C)c1,-4,0.64
O=C(NCCn1nnc2ccc(F)cc2c1=O)C1CCOCC1,-4,0.65
CN(Cc1ccncn1)c1ccc(C(F)(F)F)cn1,-12,1.6
O=C(NCC1CC1)c1nn(CCOc2ccccc2)c2c1CNCC2,2,-0.37
N#CC1(NC(=O)COC(=O)c2ccc(N3C(=O)c4ccccc4C3=O)cc2)CCCCC1,0,-0.04
O=C1NCCCCCCN(C(=O)CC2CCCC2)[C@@H]2CCCC[C@H]12,-6,0.79
Cc1cnccc1CCNCc1cccc2nonc12,-11,1.73
COC[C@@H]1CN(Cc2cnn(C)c2C)C[C@H]1c1nc(C2CC2)no1,3,-0.51
CN(C)CCN(CC1CCCCC1)S(=O)(=O)c1ccc(C#N)s1,3,-0.48
O=C(COc1cccc[n+]1[O-])N1CCCc2ccccc21,-8,1.03
COC(=O)c1ccc(C)c(OCc2cn3ccccc3c2C#N)c1,-17,2.14
C[C@](O)(C(=O)NC1CCN(C(=O)c2cc(Cl)c[nH]2)CC1)c1ccc(Cl)cc1,1,-0.09
COc1ccc2[nH]c3c(c2c1)CCN1C(=O)N(CCc2ccccc2)C(=O)[C@]31C,2,-0.24
Brc1ccc([C@H]2C[C@@H](c3ccccc3)Nc3nnnn32)cc1,-6,0.8
O=C(CN1CCC[C@H]1C1CCC1)NC1CCCCCCC1,-9,1.13
O=C(c1cnccn1)N1C[C@@H](COCC2CC2)[C@H](c2ccncc2)C1,-9,1.68

Structure (SMILES),% Inhibition [%],Z score
COc1cccc(CN2CC3(CCN(c4cc(N)ncn4)CC3)CC2=O)c1,-16,1.89
Cc1coc(C(=O)Nc2ccc(Cl)c(CN(C)C)c2)c1C,-11,1.48
O=C(COCc1nc2ccccc2[nH]1)N1CC[C@H](Cc2cccc(CO)c2)C1,-2,0.46
CCOc1ccccc1NC(=O)c1cc(-c2cccc(OC)c2)nc2c1c(C)nn2C,27,-3.02
COc1ccc(OC)c(-c2nnc(NC(=O)COc3ccccc3)o2)c1,2,-0.27
COc1ccc(NC(C)=O)cc1NC(=O)CCN1C(=O)c2ccncc2C1=O,-6,0.93
C[C@H]1COc2ccc(C(=O)NC(C)(C)c3nnn[nH]3)cc21,-1,0.24
O=C(N[C@H]1CCN(C2CC2)C1)c1nc[nH]c1C(F)(F)F,-7,1.23
CCC(CC)C(=O)N(Cc1cc(NC(=O)NC(C)C)ccc1N(C)C)CC1CC1,-12,1.17
CNC(=O)CCc1ccccc1NC(=O)N1CCO[C@H](c2ccccc2)C1,-12,1.07
O=C(NCc1ccon1)N[C@H]1CCc2c1ccc(Cl)c2Cl,-5,0.71
CC(C)OCCCOc1cc(Cl)ccc1S(N)(=O)=O,5,-0.81
COc1cccc([C@@H](C)CC(=O)N(C)c2cccnc2OC)c1,-6,0.92
Cc1nc(-c2cc(-c3ccc(C)o3)n[nH]2)n([C@H]2CCS(=O)(=O)C2)n1,-23,2.41
CC(C)c1nnc(CNC(=O)Cc2cc3ccccc3s2)[nH]1,-15,2.42
CC1(C)C[C@@H]1C(=O)N[C@H]1CC[C@H](CO)CC1,1,-0.11
CCOc1ncccc1CNC(=O)Cc1sc(C)nc1-c1ccc(C)cc1,-1,0.14
CC(=Cc1ccc(F)cc1)C(=O)N1CC[C@@H](N)C1,-3,0.51
Cc1cc(CN2CCCC2)cc(-c2ccc(C(=O)N3CC(O)C3)cc2)c1,-6,1.15
Cc1ncsc1CNc1cccc(C(=O)N2CCC[C@@H]2CO)n1,-5,0.64
CC(=O)N1CCN(C[C@@H]2C=C(C)[C@H](Cc3nnc(-c4cncn4C)o3)C[C@H]2C(C)C)CC1,8,-0.95

Structure (SMILES),% Inhibition [%],Z score
O=C(c1nc(C2CC2)n2ccccc12)N1CC(CO)C1,31,-3.48
COC(=O)[C@@H]1C[C@H](O)CCN1C(=O)c1ccc(-n2cccn2)cc1,-3,0.4
CC(C)(C)c1nn[nH]c1CNc1ccccc1,-32,3.78
CCC(CC)C(=O)Nc1ccc([C@@H](O)[C@H]2COCC(=O)N2Cc2ccccc2)cc1,-5,0.7
CN(Cc1ncc[nH]1)C(=O)NC1CC(C)(C)CC(C)(C)C1,-5,0.96
CC(C)(C)[C@H](NC(=O)C#Cc1ccccc1)C(N)=O,-5,0.9
Cc1ccc(-n2nc3c(N4CCN(C(=O)NCCC(C)C)CC4)nnc(C)c3c2C)cc1,-9,1
CCOc1ccc([C@@]2(O)CN3C=CC=CC3=[N+]2c2ccccc2)cc1,-39,4.59
O=C(Nc1ccncc1)[C@H]1CC12CCCC2,-6,1.14
COC(=O)[C@H](CNC(=O)Cc1cc(C)[nH]n1)Cc1ccccc1C,-19,2.08
CCCc1nc(CN2CCOCC3(CCC3)C2)cs1,-2,0.35
NC(=O)CC1(NC(=O)Cc2c[nH]c3cc(F)ccc23)CCOCC1,-8,1.24
CN(C)c1noc(-c2cc3c(cc2Br)NC(=O)CO3)n1,-10,1.5
CC1CC1C(=O)N1[C@@H]2C[C@H]3CC[C@]2(CS1(=O)=O)C3(C)C (stereo partly drawn),9,-0.89
O=C(c1ccccc1-c1ccccc1)N1CCO[C@H]2CCCC[C@@H]21,-2,0.28
CC1(C)CN(CC(=O)NC2CCCCC2)c2ccc(S(=O)(=O)N3CCCC3)cc21,-3,0.52
CC(C)N(CCS(C)(=O)=O)Cc1nccs1,-7,1.07
Cc1ccccc1C1=NO[C@@H](CN(Cc2ccc(F)cc2)C(=O)C2CCC2)C1,-30,2.62
Cc1ccc(C(=O)Nc2ccc3ncnc(N4CCCCC4)c3c2)cc1F,-7,0.69
O=C(Nc1ccccc1C(F)(F)F)N[C@H]1CCN(c2ccc(F)cc2)C1=O,3,-0.5
CCCc1nc2ccccc2c(C(=O)OCc2nnc(-c3ccccc3)o2)c1CC,0,0.01
